According to PubChem BioAssay AID588382 (National Center for Advancing Translational Sciences (NCATS), 2011):
Out of some 1,300 compounds screened, about 150 (12%) were called active. Inconclusive results, whose numbers are uncertain, are shown with a selection of clear calls. Calls follow the shape of the dose curve; as a rule, active = well fitted cell-killing curve with a large enough effect; inconclusive = small, poorly fitted or top-dose-only effect, or effect the other way; inactive = flat fitted curve, though single readings scatter. A potency beside an inconclusive call is a rough fit, not a confirmed value.

Assay: qHTS of small molecules that selectively kill Giardia lamblia: Hit Validation in HepG2 cytotox;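 also: compound exposure lasted overnight at 37 deg C; nearly all actives have a fitted effect of over 55% in size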;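 as to activity change, negative = cytotoxicity: viability measured as cellular ATP by ATPLite luminescence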
Settings: cell viability; Potency: HepG2 cytotoxicity; series mostly up to 38.3 µM; activity change, negative = cytotoxicity: at the top concentration
Summary of the method: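 HepG2 cells seeded and incubated overnight at 37 deg C, then 23 nL compound added by pintool and incubated overnight at 37 deg C. Viability read as ATP luminescence with ATPLite after 15 min at room temperature.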
% is scaled to controls: 0 for no effect and ±100 for the full control effect; potency is read from the fitted curve at half-maximal effect; tags tell the direction and shape of the fitted curve.

Compound	Potency	activity change, negative = cytotoxicity
CCN1CCN(Cc2ccc(NC(=O)Nc3ccccc3)cc2)CC1	inconclusive: 4.65 µM [cytotoxic, partial curve]	
O=C(NCCCO)c1cc([N+](=O)[O-])cc2c1C=Cc1ccccc1O2	inconclusive: 8.26 µM [rising, partial curve, poor fit]	
CC(=O)c1cc(N2CCOCC2)ccc1[N+](=O)[O-]	inconclusive: 2.61 µM [rising, partial curve, poor fit]	
O=C(O)CCN1C(=O)C2C3c4ccccc4C(c4ccccc43)C2C1=O (configuration not stated)	inconclusive: 13.1 µM [cytotoxic, single point]	
CCCCCC(=O)N/N=C/c1ccc([N+](=O)[O-])o1	inconclusive: 14.7 µM [cytotoxic, single point]	
Cc1ccccc1OCC(=O)N/N=C/c1ccc([N+](=O)[O-])o1	inconclusive: 16.5 µM [cytotoxic, partial curve]	
CC1CCc2c(sc(NC(=O)Cn3cnc([N+](=O)[O-])n3)c2C(N)=O)C1 (configuration not stated)		inactive: -5.73%
O=C(Nc1ccc(N2CCOCC2)cc1)c1ccc([N+](=O)[O-])o1	inconclusive: 23.3 µM [cytotoxic, single point]	
O=C(c1ccc(CSc2nc3ccncc3[nH]2)cc1)N1CCCCCC1	active: 0.927 µM	
O=C(Nc1ccccn1)c1ccc([N+](=O)[O-])o1	inconclusive: 26.1 µM [cytotoxic, single point]	
Cc1cccc(-n2ncc3c(N4CCCC4)ncnc32)c1	active: 2.07 µM	
Cc1cnc(N=Nc2ccccc2)[nH]1		inactive: 9.01%
O=C(Nc1ccc(F)cc1)C1CCN(C(=O)c2ccc([N+](=O)[O-])cc2)CC1		inactive: -6.84%
Cc1ccnc(NC(=O)c2ccc([N+](=O)[O-])s2)c1	inconclusive: 23.3 µM [cytotoxic, single point]	
Cc1cc(C)cc(Oc2ccc(NC(=O)C3CC=CCC3C(=O)O)cc2)c1 (configuration not stated)		inactive: -0.27%
COc1ccc(-n2nc([N+](=O)[O-])c(=NCCCN3CCCC3=O)n2O)cc1		inactive: 8.35%
Cc1ccc(S(=O)(=O)/N=C(/Sc2ccccc2C(=O)O)c2ccccc2)cc1	inconclusive: 18.5 µM [rising, partial curve, poor fit]	
CC(C)C(=O)N1CCN(c2ccc(NC(=O)c3ccc([N+](=O)[O-])o3)cc2)CC1	active: 5.85 µM	
O=C(Nc1ccc(S(=O)(=O)N2CCOCC2)cc1)c1ccc([N+](=O)[O-])o1	active: 13.1 µM	
COc1cccc(-c2cc3nc4c(c(NCC(C)(C)CN(C)C)n3n2)CCCC4)c1	inconclusive: 0.293 µM [cytotoxic, full curve, poor fit]	
Cc1ccc(NC(=O)Cn2cnc([N+](=O)[O-])c2)cc1C	inconclusive: 13.1 µM [rising, partial curve, poor fit]	

Compound	Potency	activity change, negative = cytotoxicity
O=C(/C=C/c1ccc([N+](=O)[O-])cc1)Nc1ncc([N+](=O)[O-])s1	inconclusive: 2.07 µM [cytotoxic, full curve]	
COc1ccc(-c2nnc(NC(=O)c3ccc([N+](=O)[O-])o3)o2)c(OC)c1	inconclusive: 13.1 µM [cytotoxic, single point]	
COc1ccc(-c2nc3ccccc3n2OCC(=O)O)cc1	inconclusive: 9.27 µM [cytotoxic, partial curve]	
O=C(N/N=C/c1ccc([N+](=O)[O-])o1)C(O)c1ccccc1 (configuration not stated)	inconclusive: 14.7 µM [cytotoxic, single point]	
Cc1ccc(-n2nc3c(N4CCC(C(=O)NCc5cccc(F)c5)CC4)nnc(C)c3c2C)cc1	inconclusive: 23.3 µM [cytotoxic, single point]	
COc1ccc(C(=O)Nc2ccc3[nH]ccc3c2)cc1	active: 2.33 µM	
O=C(N/N=C\c1ccc(O)c([N+](=O)[O-])c1)C1COc2ccccc2O1 (configuration not stated)	inconclusive: 26.1 µM [cytotoxic, single point]	
CN(C)c1nc(=NCc2ccco2)ss1	inconclusive: 26.1 µM [cytotoxic, partial curve, poor fit]	
CCn1nc(-c2ccc(C)cc2)nc2c(=O)n(C)c(=O)nc1-2	active: 5.21 µM	
O=C(O)C=C(Br)Br		inactive: 23.8%
COc1ccc(S(=O)(=O)N(C(C)=O)c2ccc(OC(C)=O)c3ccccc23)cc1[N+](=O)[O-]	inconclusive: 26.1 µM [cytotoxic, single point]	
Cc1c(NC(=O)c2ccc([N+](=O)[O-])o2)cccc1-c1nc2ncccc2o1	inconclusive: 0.521 µM [cytotoxic, full curve, poor fit]	
Cc1ccc(S(=O)(=O)NC(=S)c2ccccc2)cc1	inconclusive: 11.7 µM [rising, partial curve, poor fit]	
O=C(Nc1ncc([N+](=O)[O-])s1)c1ccc2c(c1)OCO2	inconclusive: 2.07 µM [cytotoxic, full curve]	
O=C(COc1cccnc1[N+](=O)[O-])Nc1ccc2c(c1)OCO2		inactive: 2.74%
Cc1cc(C(=O)COc2cccnc2[N+](=O)[O-])c(C)n1Cc1ccco1		inactive: 10%
Cc1ccc(CCNC(=O)CN2C(=O)COc3ccc(S(=O)(=O)N4CCOCC4)cc32)cc1	inconclusive: 2.93 µM [rising, full curve, poor fit]	
O=C(COc1ccccc1)N/N=C/c1ccc([N+](=O)[O-])o1	inconclusive: 2.61 µM [cytotoxic, partial curve, poor fit]	
Cc1ccccc1NC(NC(=O)OCCn1c([N+](=O)[O-])cnc1C)C(Cl)(Cl)Cl (configuration not stated)		inactive: 15.1%
O=C(N/N=C/c1ccc([N+](=O)[O-])o1)c1ccc2c(c1)OCO2	active: 4.65 µM	
O=[N+]([O-])c1cc2cccnc2c2ncccc12	inconclusive: 32.9 µM [cytotoxic, partial curve, poor fit]	
